In all, about 33,000 sequences were measured (“E-score (-0.5 to 0.5)”: median about -0.04, highest 2% from about 0.36 on). The list shows a part of the results.
What follows are sequences tested against T1, Hmlalpha2 (UniProt P0CY09) (assay: PBM E-score (8-mer binding enrichment) (E-score (-0.5 to 0.5)); higher = stronger / more preferred TF binding; most listed sequences are background and not binding sites). Details: protein concentration: 200 nM; construct: GST-full length.
T1 sequence: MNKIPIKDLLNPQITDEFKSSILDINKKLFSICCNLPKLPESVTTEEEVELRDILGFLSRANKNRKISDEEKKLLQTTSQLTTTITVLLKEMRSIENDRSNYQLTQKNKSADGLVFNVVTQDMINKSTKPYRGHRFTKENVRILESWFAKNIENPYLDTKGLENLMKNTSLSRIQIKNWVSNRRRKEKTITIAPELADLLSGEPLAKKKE
In short: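 Yeast transcription factors, full-length or as DNA-binding domains, were expressed with a GST tag using PURExpress in vitro transcription/translation. At about 100-200 nM they were applied to universal all-10-mer Agilent arrays, double-stranded by primer extension on fresh or once-stripped slides. Fluorescent anti-GST detected bound protein, and masliner normalised the scans. E-scores for ungapped eight-base words, pooled with reverse complements, came from the Universal PBM Analysis Suite.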

Sequence | PBM E-score
ATGGTGGC | -0.22
AAAAGTGA | 0.0299
GGAACGGA | -0.224
ATATTTAC | 0.345
GAGTCATA | -0.0489
CATGCAAG | 0.0696
CACGAGGA | -0.0217
CCGAGCTA | -0.0825
TATGTAGA | 0.424
AGATGAGC | -0.0974
ATCCTGTA | 0.284
GGCATTAC | 0.186
TAGAGACA | 0.00169
AGCAAATG | -0.149
GAGATCTC | -0.29
CTGCGTCC | -0.16
CAATCGGG | -0.0401
GGCTTTAA | -0.021
CGCGTCAA | 0.289
ATCGTGAG | -0.131
ATACTAAA | 0.137
CGAATCTC | -0.0403
AGCCAAAC | -0.0808
ATGCCTAA | -0.0628
CTAACGTC | 0.122

Sequence | PBM E-score
CACGAACG | -0.00018
CGCTGGAG | -0.303
ATCTACCA | 0.166
ACCGCCTG | -0.093
GAGGACTA | -0.113
GAGTGACA | 0.116
CCCACCAC | -0.191
GATGGTGA | -0.208
AACCTCCA | -0.404
GACTGCGA | -0.14
GCGGGAAC | -0.264
AGGGTCGC | -0.121
GAACGAGC | 0.162
AATAAGCA | 0.114
ACGCCAAG | -0.105
CCGGGCTC | -0.203
AATTATCA | 0.286
AGGACACG | -0.0228
ACTGGGGA | -0.197
ATACGCAA | 0.347
AACTGGAC | -0.0972
AGTCTTGA | -0.0757
AAGAAGCG | -0.116
CGATTCAC | -0.0647
AACTTTCA | 0.101

Sequence | PBM E-score
CTGACCGA | -0.32
GCTCTCCA | -0.226
AAAGAACC | -0.0552
GCAGCGTA | 0.0131
AAAGGCCT | -0.0831
AGTCACAC | -0.0935
TACTGATA | 0.148
AGATGTAG | 0.094
CTTTTTGC | -0.112
ATTTAGAC | 0.128
GCGCGTAA | 0.416
CTAGTTCA | 0.0551
AGATCGGC | -0.0697
AGGGATAG | -0.265
CAAGCTGG | -0.141
TAGATAGA | -0.131
TCATTCGA | 0.0932
ATTGCAAC | -0.0311
CCAACGCC | -0.0515
AAACCGGG | -0.229
AACTGCGA | -0.253
AACCCCAG | -0.199
CTGGAAGA | -0.183
ATTTTTCC | -0.0437
AACCCCCG | -0.397

Sequence | PBM E-score
AGGTGCGA | -0.219
GCTGCTGA | 0.0218
AGAAAGAA | -0.133
ATTACCGG | -0.139
TCTAGTAA | 0.222
CATCCTGG | -0.13
CGGCTCGA | -0.0892
ATGGATGG | -0.107
ATTAGCAG | -0.147
CCATTGGC | -0.198
AGTTTCGA | -0.184
AGACCTGG | -0.34
TCATTAGA | 0.0985
TCGCGCCA | -0.116
ATTACTAC | 0.274
ACAGCCGT | 0.0172
CGTAGGAA | -0.00683
AAGTTATA | 0.238
ATGCTAGA | 0.123
ACCGAACC | -0.277
GGCGTATA | 0.106
ACAAAGCG | 0.159
GATTAACA | 0.413
ACGGAGAC | 0.02
GCTAGCGA | -0.117

Sequence | PBM E-score
AACTTTCC | -0.311
TACCTACA | 0.301
ACTAACCG | 0.129
ATAAGAAA | 0.0546
ACCCGAGT | -0.0613
TAGTCGGA | -0.163
TTATCGAA | 0.0652
CTAACTCC | -0.153
ATCGTAGA | 0.063
AACGAGAA | 0.0892
AACGAAAA | -0.0514
CTTACGTA | 0.307
AGGTGGTG | -0.163
GATGATCC | -0.233
CTATAGAA | -0.0476
CCGGAGAG | -0.27
CTAACCGC | -0.0677
ATGCTTTC | 0.138
AAAAGAAG | 0.0386
GGTATTTA | 0.0776
GAACTTGA | 0.133
ACGGACCG | -0.219
ATTTCCCC | -0.153
GTTGTCGA | 0.115
GATGCACA | -0.0755

Sequence | PBM E-score
ATGATGTA | 0.358
AGCACATA | 0.134
ACTCGGGC | -0.105
AATCCATC | -0.146
CTGTAGCA | 0.00904
GCTTAGAA | -0.00669
TCGTTACA | 0.224
AAGGCCGG | -0.305
GGTAGGGA | -0.101
CAAAGTTA | 0.156
GGCTCGGA | -0.335
TCGGCCCA | -0.168
ATTTGGGG | -0.0967
CAAGCGAA | -0.00904
ATCTTAAT | 0.0212
CTGGTTAC | 0.092
AGCAACTA | 0.198
GAGGCGAC | -0.229
CCTTAGTC | -0.149
GCTTCTAA | -0.155
CGCAACAA | 0.283
CCCTTAAA | -0.0696
ATTTCCAG | 0.0617
CCCATATC | -0.145
CGAACGCA | 0.258

Sequence | PBM E-score
GCGCCTCA | -0.341
CACTCAAG | -0.0751
AGGGCAAC | -0.206
ACATTTCT | 0.0405
CCATGCAG | -0.0719
ATCGCGGC | -0.163
AACCGGCA | -0.229
AAAACAAC | 0.16
CACATAGG | 0.0614
CCTCCATC | -0.223
CAGGTTGA | -0.0957
ATTGCTTC | -0.0298
AAAATAAG | 0.0122
ACGACCGT | -0.16
GCAGGCAC | -0.186
CGAGTACA | 0.218
AGGATCGC | -0.0343
CCGTCCAA | -0.294
ACCAACAC | 0.32
CGGAGTGC | -0.23
GGGCGGGA | -0.166
AGCGTTTG | -0.188
AGCAGCAA | -0.084
ACAGGGGT | -0.035
AACTCACA | 0.0163

Sequence | PBM E-score
CCAACCAC | 0.086
TCGGGCCA | -0.353
ACTCTTTG | -0.0523
ACCCTTAA | -0.0263
ACTACCCT | -0.213
GACTCCAC | -0.373
AGCTGCAC | -0.0262
CTAAGAAA | 0.181
ACCATAAC | 0.152
GACGTCAC | -0.067
AAAAGGAT | 0.0597
CACGTAAA | 0.405
CCTCTGTC | -0.138
ACTTACAT | 0.43
CCCGCTAC | 0.0803
AGAAACAC | 0.27
AGGAGTAG | -0.0824
ACATCGAA | 0.146
AGATAGGA | -0.268
CAACAAGA | 0.225
CATAAAAG | -0.0298
CCACCTAC | -0.175
AACTCCAA | 0.0679
AGGACCAA | 0.0164
CTCAGTAC | 0.0181

Sequence | PBM E-score
ACTGGCTA | -0.179
AGCGTGCC | -0.142
GAGTTCCA | -0.0668
GCTGTCCC | -0.228
CGCCCCAA | 0.0342
CGTTTCTC | -0.166
ACCACTTC | -0.229
AAGCATCA | -0.103
AACGCAAT | 0.326
CGGTGTAG | 0.103
ATAGTACA | 0.273
CCATTCTC | -0.247
TAAATCTA | 0.236
AGGGAAGG | -0.222
AGCTGCGC | -0.0832
ACTTGCGC | -0.0151
GCTCCCGA | -0.314
CGAGGTCA | -0.138
CAAAATCA | 0.082

Reference: the supplement of paper PMC3334620
